# Experimental data: the RNAGym collection of RNA variant scans (doi:10.7554/elife.90254)
# The source gives no read counts; variants with many changes may rest on few reads.
# B1: LINE1-mini (parent)
# chain: GGCAGAGCUCAACACAGCGUGGCAAAGUGGCUGUGGCUAGACUGCC
# Variants of: B1
# Test: self-cleavage, relative activity (ratio to wild type); higher = more cleavage; in vitro, sequencing; the parent is a self-cleaving ribozyme
row,Variant,self-cleavage
1,GGCAGAGGUCAACACAGCGUGGCAAAGUGUCUGUGCCUAGACUGCC,0.06
2,GGCAGAGGUCAACACAGCGUGGCAAAGUACCUGUGACUAGACUGCC,0.05
3,GGCAGAGGUCAACACAGUGUGUCAAGGUGCCUGUGGCUAGAUUGCC,0.03
4,GGCAGAGGUCAACACAGCGUGACGAAGUGGCUGUGGUUAGAAUGCC,0.07
5,GGCAGAGGUCAACACAGCGUGUCAAAGUGGCCUUGGCUAGACUGCC,0.11
6,GGCAGAGGUCAACACAGCGUGGCAAAGUCGCUGUGGCUAGAAUGCC,0.04
7,GGCAGAGGUCAACACAACGUGGCAAAGUGGCUGUGGCUUAACUGUC,0.08
8,GGCAGAGGUCAACACAGCGUCGCGAAGUGGCUGUGGCUAGACUGCC,0.02
9,GGCAGAGGUCAACACAACGUGGCAAAGUGGGUGUGGCUAAACUGCU,0.01
10,GGCAGAGGUCAACACAGCAUGGCAAAGUGGCUGUGGGUACACUGGC,0.01
11,GGCAGAGGUCAACACAGCCUGGCCAAGUGGUUGUGGCUAGACUGCC,0.03
12,GGCAGAGGUCAACACAGCGUGGCAAAGUGGCUGUAGCUAGACUACC,0.03
13,GGCAGAGGUCAACACAACGGGGCAAAGUGGCUGUGGCUAGACUGCC,0.04
14,GGCAGAGGUCAACACAACGUAGCAAAGUGGCUGUGGCUAGACUGCC,0.04
15,GGCAGAGGUCAACACAGCGUGGCAAACUGGAUGUGGCUAGACUGCC,0.02
16,GGCAGAGGUCAACACAGCCUAGCAAAUUGGCUGUGGCUAGACUGCC,0.03
17,GGCAGAGGAAAACACAGCGUGGCAAAGUGGCUGUGGCUAGUCUGCC,0.03
18,GGCAGAGGUCAACACACCGUGGCAAAGUGACUGCGGCUAGACUGAA,0
19,GGCAGAGGUCAACAUAGCGUGGCAAAGUGACUGGGGCUAAACUGCC,0.02

row,Variant,self-cleavage
1,GGCAGAGGUCAACACAGCGUGGCAAAGUGGCUGUGCCUAAACUGCC,0.04
2,GGCAGAGGUCAACACAGCGUUGCACAGUGGCUGUGGCCAGACUGGC,0.07
3,GGCAGAGGUCAACACAGCGUGGCAAAGUGGCUCUUGCUAGACUGCC,0.03
4,GGCAGAGGUCAACACAGCGUGGCAAAGUGGCUGUGUCUACACUGCC,0.04
5,GGCAGAGGUCAACACAGCGUGGCAAAGUAUCUGUGGCUUGACUGCC,0.07
6,GGCAGAGGUCAACACAGCGUGGAAAAGUGGCUGUGGCUACACUGCC,0.13
7,GGCAGAGGUCAACACACCGUGGCAAAGUGGCGGUGGCUAGACUGCC,0.04
8,GGCAGAGGUCAACACAGCGUGGCAAAUUGGCUGAGGCUAGACUGCC,0.02
9,GGCAGAGGUCAACACACCGUCGCAAAGUGGCUGUGGCUAGACUGCC,0.05
10,GGCAGAGGUCAACACAGCGUAGCAAGGUGGCUGUGGCUAUACUGCC,0.17
11,GGCAGAGGUCAACACAACGUGCCAAAGUGGCUGUGUCUAGACUGCC,0.15
12,GGCAGAGGUCAACACAGCGUGGCAAACUGGAUGUGGUUAGACUGCC,0.02
13,GGCAGAGGUCAACACAGCGUAGCAGAGUGGCUGUGGCUAGACUUCC,0.04
14,GGCAGAGGUCAACACAGCCUGGCAAAGUGGCUGUCGCUAGACUGCC,0.03
15,GGCAGAGGUCAACACAGCGUGUAAAAGUGGCUGUGGCUAGACUGCC,0.01
16,GGCAGAGGUCAACACAGCGUGGCAAAGUGGCUAUAUCUAGACUGCC,0.2
17,GGCAGAGGUCAACACAGCGUGGAUUAGUGGCUGAGGCUAGACUGCC,0.02
18,GGCAGAGGUCAACACAGAGUUGCAAAGUCGCUGUGGCUAGACUGCC,0.03
19,GGCAGAGGUCAACACAGCGUCGCAAAGUGGCUGUAGCUUGACUGCC,0.04

row,Variant,self-cleavage
1,GGCAGAGGUCAACACAGUGUGGCAAAGUAACUGUGGCUAGAGUGCC,0.02
2,GGCAGAGGUCAACACAGCGUUGCAAAGUGGCUGUGGCUACACUGCC,0
3,GGCAGAGGUCAACACAUCGUGGCAAGGUGACUGUGGCUACUCUGCC,0.07
4,GGCAGAGGUCAACACAUCGUGGCAAAGUGGCUGUAGCUAGAAUGCC,0.1
5,GGCAGAGGUCAACACAGCGUGGCAAAUUGGCUGUGACUAGACUGCC,0.07
6,GGCAGAGGUCAACACAGUGUGGCAAAGUGGCUGUGGCUGGACUGUC,0.01
7,GGCAGAGGUCAACACAGCCUGGCAAAGGGGCUGUGACUAGACUGCC,0.02
8,GGCAGAGGUCAACACAGCGUGGCAAAGUGGCUGUAGCUAUACUGCC,0.15
9,GGCAGAGGUCAACACAGCGUGACAAAGUGGCUGUGGUCGGACUGCC,0
10,GGCAGAGGUCAACACAACGUGGCAAUGUGGCUGUGGCUAGAUUGCC,0.06
11,GGCAGAGGUCAACACAGCGUGCCCAAGUGGCUGUGGCUAGACUGCC,0.07
12,GGCAGAGGUCAACACAGCGUUGCAAAGUGGCGGUAGCUAGACUGCC,0.03
13,GGCAGAGGUCAACACAGCGUGGCAAAAUGGCUGGGGCUAGACUGCC,0.03
14,GGCAGAGGUCAACACAGGGUGGUAAAGUGGCUGUGGCUAGACUGCU,0.15
15,GGCAGAGGUCAACACACCGUGGCCAAGUGGCUGUGGCUAGACUGCC,0.02
16,GGCAGAGGUCAACACAGCGUGGGCAAGUGGCUGUGGCUAGACUGCC,0.05
17,GGCAGAGGUCAACACAGCGUUGCAAAGUGGCUGUGGCUAUCCUGCC,0.1
18,GGCAGAGGUCAACACAGAGUGGCGAUUUGGCUUUGGCUAGACUGCC,0.01
